Results from PubChem BioAssay AID488969 (Vanderbilt High Throughput Screening Facility, 2010).
Over roughly 110,000 compounds, “z-score” has its median near -0.1; the highest 2% begin near 2. The list shows a part of the results. Calls of active or inactive are those of the source.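 How the source made its calls: active means z-score in the third read window above 3 or below -3; inactive means the rest.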 Non-standard residues stand in square brackets, D forms with d. Residues, ends and D or L forms follow the SMILES beside them. ξ: configuration not given here. *: point of attachment. Cbz = O=C(OCc1ccccc1)*; OBn = c1ccc(CO*)cc1; ξP = O=C(O)C1CCCN1

biological target: Metabotropic glutamate receptor 8 (Rattus norvegicus) (UniProt P70579); assay: rat mGluR8 modulators via GIRK flux, primary screen, cell-based, thallium flux, HTS (AID 488969); conditions: HEK293 rat mGluR8, GIRK (G protein-gated inwardly rectifying potassium channel) thallium flux, FluoZin2; at 10 µM; stronger effect = higher value; submaximal glutamate (EC20) added with thallium
Chain of UniProt P70579 (P70579 whole entry, looked up): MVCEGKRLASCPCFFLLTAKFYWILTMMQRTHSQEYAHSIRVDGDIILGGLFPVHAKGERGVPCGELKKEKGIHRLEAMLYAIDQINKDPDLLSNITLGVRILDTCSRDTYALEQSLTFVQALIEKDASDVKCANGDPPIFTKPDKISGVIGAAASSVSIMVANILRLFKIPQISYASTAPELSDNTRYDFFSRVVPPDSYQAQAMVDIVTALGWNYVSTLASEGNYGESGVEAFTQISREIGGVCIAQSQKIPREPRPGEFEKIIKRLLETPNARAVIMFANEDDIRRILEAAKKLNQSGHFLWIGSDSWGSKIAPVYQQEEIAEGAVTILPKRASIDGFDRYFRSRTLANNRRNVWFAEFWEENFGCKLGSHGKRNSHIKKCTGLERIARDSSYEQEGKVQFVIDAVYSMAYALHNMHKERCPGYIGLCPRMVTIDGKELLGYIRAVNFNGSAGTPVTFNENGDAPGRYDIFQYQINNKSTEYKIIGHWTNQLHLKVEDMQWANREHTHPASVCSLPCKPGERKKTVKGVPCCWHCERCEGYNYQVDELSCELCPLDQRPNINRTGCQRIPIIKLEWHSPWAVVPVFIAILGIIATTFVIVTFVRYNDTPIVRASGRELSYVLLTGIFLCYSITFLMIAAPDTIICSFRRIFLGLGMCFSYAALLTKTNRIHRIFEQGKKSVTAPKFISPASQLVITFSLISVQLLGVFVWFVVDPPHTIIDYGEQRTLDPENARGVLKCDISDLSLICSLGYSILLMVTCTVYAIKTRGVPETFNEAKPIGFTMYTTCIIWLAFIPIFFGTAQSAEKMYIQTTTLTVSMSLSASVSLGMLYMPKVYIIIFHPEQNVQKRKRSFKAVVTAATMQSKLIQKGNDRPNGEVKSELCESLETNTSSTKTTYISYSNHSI

Structure (SMILES) | z-score
COc1ccc(-c2nn(-c3ccccc3)cc2/C=N/NC(N)=S)cc1OC | -0.462
Cc1cccc(NC(=O)/C(=C\c2ccco2)NC(=O)c2ccccc2)c1 | -0.314
Cc1nn2c(-c3cccc(NC(=O)c4ccco4)c3)nnc2c2ccccc12 | -0.592
CC1(C)CC(=O)C(C(c2ccccc2F)C2C(=O)CC(C)(C)CC2=O)C(=O)C1 | -0.0855
Cc1ccccc1C1C(C#N)=C2N=C(N)c3c(sc4c3CCCCC4)N2C2=C1C(=O)CCC2 (stereo unspecified) | -0.151
C=CCc1c(C)nc(-c2ccccc2)nc1N/N=C(\C)c1ccccc1 | -0.217
Cc1noc(C)c1C(=O)NCc1ccco1 | 0.0639
CCN1C(=O)Cc2cc(S(=O)(=O)N3CCOCC3)ccc21 | -0.176
O=C(NC(=S)N1CCc2ccccc21)c1ccccc1 | active: 7.58
CCOc1ccc2nc(NC(=O)CN3CCC(n4nnc5cc(C(F)(F)F)ccc54)CC3)sc2c1 | 0.31
CCOCCCNC(=O)C(NC(=O)c1ccccn1)c1ccc(C)cc1 (stereo unspecified) | 0.369
CCOc1cc(N2CCOCC2)c(OCC)cc1NC(=O)C1CCCC1 | -0.0851
O=S(=O)(c1cccc(NC(=S)Nc2ccc(Br)cc2Cl)c1)N1CCOCC1 | 1.04
CC(O)CNc1nc2ccccc2n1CC(=O)NCCc1ccc(Cl)cc1 (stereo unspecified) | -0.271
CC(=O)Nc1ccc(C(=O)N2CCN(C(=O)c3ccco3)CC2)cc1 | -0.147
CCC(C)(C)NC(=O)CN(C(=O)CCC(=O)Nc1ccccn1)c1ccc(F)c(Cl)c1 | 0.638
COc1ccc(-c2ccc(/C=N/NC(=O)c3cccnc3)o2)c([N+](=O)[O-])c1 | 0.101
O=[N+]([O-])c1ccc(N2CCN(c3ccccc3O)CC2)c(Cl)c1 | -0.0782
CCN(CC)S(=O)(=O)c1ccc(NC(=O)C2CCCO2)cc1 (stereo unspecified) | -0.205
CC1=NN(c2ccc(N)cc2)C(=O)C1 | 0.0103
COc1ccc(CCN(C)C(=O)c2ccc(S(=O)(=O)NCc3ccco3)cc2)cc1OC | -0.228
Cc1ccc(NC(=S)c2nc3ccccc3s2)cc1 | 0.791
CC(=O)Nc1sc2c(c1C(c1ccc(F)cc1)N1CCOCC1)CCCC2 (stereo unspecified) | -0.267

Structure (SMILES) | z-score
Cc1c(NC(=O)c2cc(C3CC3)on2)c(=O)n(-c2ccccc2)n1C | 0.0831
Cc1ccc(-n2c(SCc3nc4ccccc4c(=O)[nH]3)nnc2-c2ccccc2O)cc1 | -0.814
O=C(NC12CC3CC(CC(C3)C1)C2)c1cnccn1 | -0.0644
COc1cccc(OC)c1C(=O)Nc1cccc(C(C)=O)c1 | -0.129
O=C(CN1CCCCC1)Nc1ccccc1NC(=O)CN1CCCCC1 | 0.172
CCN(CC)S(=O)(=O)c1ccc2oc(C(=O)N3CCc4ccccc4C3)c(C)c2c1 | -0.125
CCCCn1c(C)cc(C)c(S(=O)(=O)c2ccccc2C)c1=O | -0.799
CSc1ccc(CNc2ccc(C)cc2)cc1 | -0.0586
CCn1nnc2sc3c(c2c1=O)CCC(C)C3 (stereo unspecified) | -0.816
CCOC(=O)CSc1nc2c(sc(=S)n2Cc2ccco2)c(=O)n1-c1ccc(F)cc1 | -0.18
Brc1cccc(OCCn2ccnc2)c1 | -0.132
O=C1SCCc2c1n(Cc1ccccc1)c1ccccc21 | -0.124
COCCNC(=O)CN1CCOc2ccccc21 | -0.153
O=C(NCc1ccccn1)c1cc2n(n1)C(C(F)(F)F)CC(c1ccco1)N2 (stereo unspecified) | 0.542
Cc1cc(C)n(C(=O)CNC(=O)C(c2ccccc2)c2ccccc2)n1 | -0.473
Cc1ccc(NC(NC(=O)c2cccs2)C(Cl)(Cl)Cl)cc1C (stereo unspecified) | -0.404
Cc1ccc(Nc2nc(C)cc(C)n2)c(Br)c1 | 1.6
O=C(COc1ccc(S(=O)(=O)N2CCCCC2)cc1)N1CCCCCC1 | -0.493
O=C(CCl)Nc1ccccc1Sc1ccccc1 | -0.216
O=C(Nc1cccc(F)c1)NC1CCCCC1 | 0.258
CCON1C(=O)CN(C(=O)OC)C1c1ccc(Cl)cc1Cl (stereo unspecified) | -0.254
Cc1ccccc1Nc1nnc(SCC(=O)Nc2ncc(C(F)(F)F)cc2Cl)s1 | -0.219
COc1ccccc1CC(=O)Nc1c[nH]c(=O)[nH]c1=O | 0.0579

Structure (SMILES) | z-score
CCCCn1nc2cc(C(=O)NCc3ccco3)ccc2c1OCC | -0.226
CCCC(=O)NC(c1ccco1)c1c(O)ccc2ccccc12 (stereo unspecified) | -0.329
CCOC(=O)c1cnc(Nc2nc3ccccc3o2)nc1CN1CCN(c2ccccc2)CC1 | 0.234
Cc1cc(=O)oc(C)c1C(=O)OCC(=O)c1ccc(Cl)c(Cl)c1 | 0.0176
Clc1ccccc1-c1nc(N/N=C/c2cccnc2)c2ccccc2n1 | -1.17
COc1ccc(OC(C)C(=O)Nc2cccnc2)cc1 (stereo unspecified) | 1.27
CC12COC3(C(=O)Nc4nccs4)CC1CCC32C (stereo unspecified) | 0.102
Cc1ccc(C)c(NS(=O)(=O)c2cc(C(=O)NCc3ccccn3)ccc2Cl)c1 | -0.345
CCOC(=O)N1CCN(C(=O)c2ccc3c(=O)n(CCOC)c(=O)[nH]c3c2)CC1 | -0.201
CCOCCCNCC(=O)Nc1ccc(OC(F)(F)F)cc1 | 0.312
O=C(c1cccs1)[C@@H]1[C@@H]2C(=O)N(Cc3ccc4c(c3)OCO4)C(=O)[C@@H]2C2c3ccccc3C=CN21 (stereo partly specified) | -0.104
O=C1CCCCC1S(=O)(=O)c1ccccc1 (stereo unspecified) | 0.22
O=C(Nc1nsc(-c2ccccc2)n1)c1cccs1 | -0.31
C[C@H](NC(=O)Nc1cccc(C(F)(F)F)c1)C(=O)O | 0.557
NS(=O)(=O)c1ccc(NS(=O)(=O)c2cccs2)cc1 | -0.115
Cn1ncc(Br)c1C(=O)OCC(=O)Nc1nc(-c2ccccc2)cs1 | -0.654
O=C(CN1C(=O)c2ccccc2S1(=O)=O)NC1CC2CCC1C2 (stereo unspecified) | -1.05
COCC(C)NC(=O)NC(=O)c1ccc(Cl)cc1 (stereo unspecified) | -0.141
COc1ccc(NC(=O)Cc2coc3cc(C)c(C(C)C)cc23)cc1S(=O)(=O)N1CCOCC1 | -0.503
CC(C)=CCc1c(C)nc2ccccc2c1C(=O)O | -0.313
CCCCN(CCCNC(=O)C1CCN(S(=O)(=O)N2CCOCC2)CC1)c1ccccc1 | -1.17
Cc1ccc(Cn2c(=O)c3ccccc3n3c(CCC(=O)O)nnc23)cc1 | 1.86
CCSc1nc(-c2ccc(OC)cc2)ccc1C#N | -0.353

Structure (SMILES) | z-score
Cc1cccc(N2CCN(Cc3oc(CO)cc(=O)c3O)CC2)c1C | -0.0974
Cc1cc(C)nc(SC2CCCCC2NS(=O)(=O)c2ccccc2)n1 (stereo unspecified) | -0.037
Clc1ccc(OCCCn2cncn2)cc1Cl | -0.372
Cc1ccc(/C=C2\CCC3=C2OC(N)=C(C#N)C3c2ccc(C)cc2)cc1 (stereo unspecified) | 0.44
COc1ccc(C2=NOC(C(=O)Nc3cc(C)nn3-c3ccccc3)C2)cc1OC (stereo unspecified) | -0.0749
CCOC(=O)c1ccc(NC(=O)Cn2nnc(-c3ccc(C)cc3)n2)cc1 | -1.18
Cc1cc(C)cc(-n2c(=O)c3sccc3n(CC(=O)NCc3ccco3)c2=O)c1 | -0.198
CCOc1ccc(NC(=O)CC2C(=O)N(c3ccccc3)C(=O)N2Cc2ccccn2)cc1 (stereo unspecified) | 0.114
CCOc1nc(C)ccc1-c1noc(-c2ccco2)n1 | 0.24
CCOC(=O)COC(=O)c1ccc(Oc2cc(C)nc(SC)n2)cc1 | -0.774
CCCc1[nH]nc2c1C(c1ccc(OCCN3CCOCC3)c(OCC)c1)C(C#N)=C(N)O2 (stereo unspecified) | -0.892
Cc1ccc(-c2noc(CCC(=O)Nc3cccc(C#N)c3)n2)cc1 | 0.556
CS(=O)(=O)N(CC(=O)NC1CCCCC1)c1cccc(Cl)c1 | 1.03
COc1ccccc1NC(=O)Cc1noc(CSc2nnc(N)s2)n1 | -0.249
CCn1c(SCC(=O)Nc2cc(NC(C)=O)ccc2OC)nnc1-c1cccnc1 | -0.0584
COc1ccc(NC(=O)C2(c3ccc(NC(=O)c4ccc(OC(C)=O)cc4)cc3)CCCC2)cc1 | -0.0269
O=[N+]([O-])c1cc(Cl)cc(C2=NCCN2)c1 | 0.173
CCCCCN(C(=O)NC(=O)Nc1ccccc1OC)S(C)(=O)=O | 1.25
COc1ccc(NC(=O)CCC(=O)OCC(=O)c2ccc(Oc3ccc([N+](=O)[O-])cc3)cc2)cc1 | -0.475
O=C1NCCN1C(=O)c1ccccc1F | 0.555
COc1ccc(/C(C)=N/Nc2cc(C(F)(F)F)ccc2Cl)c(OC)c1 | -0.148
Cc1nc2ccccn2c1/C(O)=C1\C(=O)C(=O)N(CCCn2ccnc2)C1c1ccncc1 (stereo unspecified) | 0.355
Cc1ccc(NC(=O)/C(=C\c2ccc([N+](=O)[O-])cc2)NC(=O)c2ccccc2)cc1 | -0.085

Structure (SMILES) | z-score
CCC(Oc1ccccc1)C(=O)Nc1ccc(-c2nnc(-c3ccco3)o2)cc1 (stereo unspecified) | -1.36
COc1ccc(CNC(=O)COC(=O)c2cc(-c3ccc(Cl)s3)nc3ccccc23)cc1 | -0.432
CCOCc1cn(CC(=O)c2ccc(Cl)cc2)c(C)nc1=N | -0.0215
CCn1c(SCC(=O)NCc2ccc(C)cc2)nnc1-c1ccncc1 | -0.152
COc1ccc(C(=O)NC(=S)N2CCC(C)CC2)cc1 | active: 14.2
CCN(CC(=O)NC(C)C)C(=O)c1ccc(S(=O)(=O)N(C)c2ccccc2OC)cc1 | 0.236
COc1ccccc1OCC(=O)N/N=C/C=C/c1ccc([N+](=O)[O-])o1 | -0.316
FC(F)Sc1ccc(NC(=S)NC2CCCCC2)cc1 | -0.326
COc1ccc(C(=O)Nc2ccc(F)cc2F)cc1OC | -0.179
O=C1c2ccccc2-c2nc3ncnn3c(-c3ccccc3)c21 | 0.11
CCn1c(Cc2ccccc2)nnc1SCC(=O)Nc1ccc(N)cc1 | -0.314
Cc1nc(N)sc1-c1csc(Nc2ccccc2)n1 | -0.33
Cc1c(-n2cc(C(=O)c3cc(Cl)ccc3O)cc(C#N)c2=O)c(=O)n(-c2ccccc2)n1C | 0.462
Cc1cc2c(cc(C(=O)OC(C(=O)NCc3ccco3)C(C)C)n2C)o1 (stereo unspecified) | -0.314
Cc1ccc(S(=O)(=O)CCc2nnc(N)s2)cc1C | 0.747
OC(COc1ccc2c(c1)CCC2)CN1CCN(c2cccc(Cl)c2)CC1 (stereo unspecified) | 0.306
Cc1ccc(N2CCN(CCCCN3C(=O)C4CCCN4C3=O)CC2)cc1 (stereo unspecified) | -0.179
CC1(C(=O)NCc2ccccc2)Oc2ccccc2NC1=O (stereo unspecified) | -0.0508
O=C(CNC(=O)OCc1ccccc1)NCC(=O)N1CCCC1C(=O)OCc1ccccc1 (stereo not drawn) (Cbz-Gly-Gly-[ξP]-OBn) | 0.112
